This is one part of the list.
How the values were obtained:
[1] = test system: HSkMC (human skeletal muscle cells); assay: cytotoxicity call (relative viability < 0.9); conditions: 10 µM
[2] = test system: HepG2; assay: cytotoxicity call (relative viability < 0.9); conditions: 10 µM
[3] = test system: S. aureus RN4220; assay: growth inhibition call (relative growth <= 0.2); conditions: 50 µM

C[C@H](CO)N1C[C@H](C)[C@@H](CN(C)S(=O)(=O)c2cn(C)cn2)Oc2cc(C3=CCCC3)ccc2S1(=O)=O
inactive: cytotoxicity call [1] | cytotoxicity call [2] | growth inhibition call [3]

C[C@@H]1CN([C@@H](C)CO)C(=O)CCCn2cc(nn2)CO[C@@H]1CN(C)C(=O)Nc1ccc(C(F)(F)F)cc1
inactive: cytotoxicity call [1] | cytotoxicity call [2] | growth inhibition call [3]

Cc1noc(C)c1NC(=O)N(C)C[C@H]1OCCCC[C@H](C)Oc2ccc(NC(=O)Nc3ccc4c(c3)OCO4)cc2C(=O)N([C@H](C)CO)C[C@@H]1C
inactive: cytotoxicity call [1] | cytotoxicity call [2] | growth inhibition call [3]

O=C(c1cc2n(n1)CCCO2)N1CC(O)C1
inactive: cytotoxicity call [1] | cytotoxicity call [2] | growth inhibition call [3]

O=C(NCCN1CCCC1)[C@H]1N[C@H]2c3ccc(-c4ccccc4)c(=O)n3C[C@H]2[C@@H]1CO
inactive: cytotoxicity call [1] | cytotoxicity call [2] | growth inhibition call [3]

CO[C@H]1CN(C)C(=O)c2cc(NS(C)(=O)=O)ccc2OC[C@@H](C)N(C(=O)c2ccc3c(c2)OCO3)C[C@@H]1C
inactive: cytotoxicity call [1] | cytotoxicity call [2] | growth inhibition call [3]

CN(C)CCCCNC(=O)[C@H]1C[C@H]2C(=O)N[C@@H](CCCC[N+](C)(C)C)C(=O)N2[C@H]1c1cccc(OCCO)c1
inactive: cytotoxicity call [1] | cytotoxicity call [2] | growth inhibition call [3]

C[C@@H]1CN([C@@H](C)CO)S(=O)(=O)c2ccc(-c3ccccc3F)cc2O[C@H]1CN(C)S(C)(=O)=O
inactive: cytotoxicity call [1] | cytotoxicity call [2] | growth inhibition call [3]

COc1ccc(NC(=O)Nc2cccc3c2O[C@@H](CN(C)Cc2ccc(C(=O)Nc4ccccc4N)cc2)[C@@H](C)CN([C@H](C)CO)C3=O)cc1
inactive: cytotoxicity call [1] | cytotoxicity call [2] | growth inhibition call [3]

Reference: the antibiotic and cytotoxicity screens of Wong et al. (2023)
